# Data published in the BET-seq Pho4 binding data (Le et al. 2018).
# The other results are listed elsewhere or left out. These are noisy estimates, calculated here from bound and input reads.
# Target: T1, Pho4 (S. cerevisiae) (UniProt P07270)
# T1 sequence: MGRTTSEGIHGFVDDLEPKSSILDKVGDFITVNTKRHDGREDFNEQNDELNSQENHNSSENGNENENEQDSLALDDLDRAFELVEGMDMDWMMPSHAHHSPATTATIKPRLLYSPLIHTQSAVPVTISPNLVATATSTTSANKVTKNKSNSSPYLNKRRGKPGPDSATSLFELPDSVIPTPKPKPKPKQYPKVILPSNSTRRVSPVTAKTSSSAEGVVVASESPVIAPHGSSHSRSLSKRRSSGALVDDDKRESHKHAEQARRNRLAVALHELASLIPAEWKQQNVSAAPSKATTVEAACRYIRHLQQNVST
# Test: relative binding free energy (BET-seq); higher = weaker binding
# Conditions: reference: library average
row,Sequence,relative binding free energy [kcal/mol]
1,GGGATCACGTGTAAAG,0.22
2,TTGATCACGTGATTCG,0.38
3,AGTTACACGTGGCTGG,0.09
4,AGTTACACGTGAAGAA,0.42
5,TGGTCCACGTGCTGGT,-0.01
6,GAGGGCACGTGTCTGT,-0.21
7,GGTAACACGTGGAAGA,0.15
8,GGCGGCACGTGTTTAA,-0.01
9,TTAGTCACGTGGCTGC,0.06
10,TCCGTCACGTGAATGG,0.41
11,AACTGCACGTGATGGA,0.15
12,TATAGCACGTGGTGCT,-0.25
13,ATACGCACGTGAGTTG,0.02
14,GTGGGCACGTGAATTG,0.2
15,GCTTGCACGTGGATGC,0.16
16,TGTCGCACGTGATCGT,0
17,TGGGACACGTGAGTTC,0.35
18,AGGGGCACGTGCGGTG,-0.16
19,TGTCGCACGTGGCGAG,-0.13
20,AAGGTCACGTGTTAAA,0.27
21,AGGAGCACGTGTCGGT,-0.01
22,GCGGTCACGTGTGGAC,0.19
23,GTGATCACGTGTTAAG,0.06

row,Sequence,relative binding free energy [kcal/mol]
1,GTGTGCACGTGTATTA,-0.01
2,GTCTGCACGTGGAGGT,-0.02
3,ATATCCACGTGGAGGG,-0.04
4,AATGTCACGTGATTCA,0.25
5,AGCATCACGTGTATGT,0.21
6,ATAGGCACGTGCGGCG,-0.27
7,TGTCTCACGTGGGCGG,0.15
8,GTTAGCACGTGATTCT,0.13
9,CGAGACACGTGGGTGT,-0.25
10,GATATCACGTGAGGGG,0.47
11,GGGCTCACGTGGGGGT,0.1
12,GTAAGCACGTGTCGAG,0.01
13,GTTATCACGTGGAGAG,0.18
14,TTATACACGTGGGTGG,-0.08
15,GTCCGCACGTGGGTGA,-0.16
16,GGGTGCACGTGCAGTA,0.02
17,ATGCTCACGTGAGCGT,0.28
18,ATTGTCACGTGTAGAT,0.17
19,GGTACCACGTGAGGGG,0
20,TGGGCCACGTGATGCG,0.04
21,TCTAGCACGTGGTATT,-0.18
22,TCTTTCACGTGAGGTC,0.39
23,GTCTACACGTGGTGTT,0.02

row,Sequence,relative binding free energy [kcal/mol]
1,GTTAGCACGTGCGGTA,0.01
2,AAGTGCACGTGGAGGC,-0.07
3,GTTTTCACGTGTAAAA,0.21
4,TAGGACACGTGAGGTT,0.16
5,GTCATCACGTGGTGTA,0.05
6,TGGATCACGTGGGTTG,0.06
7,GAGTTCACGTGGCGTG,0.25
8,GGAAGCACGTGGGCCG,-0.08
9,TATGGCACGTGCTTGA,-0.26
10,GGGGTCACGTGCGGCG,0.04
11,TTATGCACGTGTCGCG,-0.04
12,TAGTTCACGTGAATTC,0.46
13,TCGTGCACGTGTGAGT,0.1
14,GGCGGCACGTGGGTGA,-0.27
15,CGTTTCACGTGCTGGG,0.25
16,TTCGCCACGTGTGGGT,-0.09
17,TTGTTCACGTGTGGAG,0.27
18,TAGGGCACGTGGGAAT,0
19,AGGTTCACGTGAGGGC,0.29
20,GTATACACGTGGGAGT,-0.08
21,TGCCGCACGTGGTGTT,-0.09
22,TGCGTCACGTGAGCAG,0.34
23,TATGTCACGTGTTCGG,0.18

row,Sequence,relative binding free energy [kcal/mol]
1,TCTGTCACGTGTAGTA,0.12
2,ATGGCCACGTGCGTGG,-0.25
3,GGGTACACGTGAGTTA,0.32
4,TGTGCCACGTGTGTCT,-0.03
5,CGTTGCACGTGGTCTG,-0.03
6,TTCTACACGTGTGGAT,0.14
7,AGTGACACGTGTGTGG,0.1
8,AGGTACACGTGGTAGC,-0.04
9,CAGGACACGTGGCGGT,-0.12
10,GAGAGCACGTGTGTAT,-0.03
11,GAAGTCACGTGCGGCG,0.19
12,TTGTTCACGTGGGCCT,0.25
13,ACGGTCACGTGAGGGG,0.16
14,GGAGGCACGTGGCGTC,-0.23
15,GGTGCCACGTGTGTGA,-0.09
16,ACGTTCACGTGGTATT,0.14
17,TCTCGCACGTGGGGTG,-0.29
18,AGGGACACGTGGCTGG,-0.18
19,CTTTGCACGTGGTATG,-0.1
20,GAGGTCACGTGGGATA,0.17
21,GGTTTCACGTGCTTGG,0.31
22,AGGTTCACGTGTTTGC,0.2
23,GGACGCACGTGTAGTG,-0.18

row,Sequence,relative binding free energy [kcal/mol]
1,AGTTGCACGTGTAAAT,0.15
2,GAGTTCACGTGGGGGC,0.35
3,GGCGGCACGTGAGTAG,0.13
4,CAAGGCACGTGGAGTT,-0.16
5,CGTGGCACGTGGCATT,-0.14
6,GTAGGCACGTGAGGAC,0.25
7,CGGGGCACGTGAGGAT,0.1
8,GGCTGCACGTGGGCGG,-0.21
9,GGGGGCACGTGAAGTA,0.16
10,TCCGGCACGTGGGGCG,-0.27
11,GTGGGCACGTGTTATC,0.07
12,CGGAGCACGTGCAGTG,-0.14
13,TTATGCACGTGTGAGA,0.1
14,GCTGGCACGTGGGTAA,-0.24
15,GTAGGCACGTGGTTTG,-0.04
16,GGTTACACGTGGTCGG,0.2
17,TTTGGCACGTGATATT,-0.06
18,GAGTGCACGTGCTGTG,-0.01
19,GGCAACACGTGAGGTG,0.31
20,AATTTCACGTGGCAGT,0.18
21,AATATCACGTGGGCTT,0.24
22,TTCAACACGTGTGTGG,0.1
23,GGGTTCACGTGGACGA,0.28
